# Reference: article PMC6919601, “Identification of Plasmodium dipeptidyl aminopeptidase allosteric inhibitors by high throughput screening” (PLoS ONE, 2019)
# About 230 (0.21%) of roughly 110,000 compounds showed an effect of 50% or more. The list shows a part of the results.
# Target: DPAP1 (Plasmodium falciparum, UniProt Q8IIJ9)
# Assay: primary screen, percent inhibition; read by cleavage of a fluorogenic dipeptide substrate; higher = more effect of the substance
# Set-up: species or system P. falciparum D10 trophozoite lysates; single well
# 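Further: 30 min substrate incubation versus DMSO and 10 µM JCP410 controls.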
# Chain of DPAP1 (Q8IIJ9 whole entry, looked up): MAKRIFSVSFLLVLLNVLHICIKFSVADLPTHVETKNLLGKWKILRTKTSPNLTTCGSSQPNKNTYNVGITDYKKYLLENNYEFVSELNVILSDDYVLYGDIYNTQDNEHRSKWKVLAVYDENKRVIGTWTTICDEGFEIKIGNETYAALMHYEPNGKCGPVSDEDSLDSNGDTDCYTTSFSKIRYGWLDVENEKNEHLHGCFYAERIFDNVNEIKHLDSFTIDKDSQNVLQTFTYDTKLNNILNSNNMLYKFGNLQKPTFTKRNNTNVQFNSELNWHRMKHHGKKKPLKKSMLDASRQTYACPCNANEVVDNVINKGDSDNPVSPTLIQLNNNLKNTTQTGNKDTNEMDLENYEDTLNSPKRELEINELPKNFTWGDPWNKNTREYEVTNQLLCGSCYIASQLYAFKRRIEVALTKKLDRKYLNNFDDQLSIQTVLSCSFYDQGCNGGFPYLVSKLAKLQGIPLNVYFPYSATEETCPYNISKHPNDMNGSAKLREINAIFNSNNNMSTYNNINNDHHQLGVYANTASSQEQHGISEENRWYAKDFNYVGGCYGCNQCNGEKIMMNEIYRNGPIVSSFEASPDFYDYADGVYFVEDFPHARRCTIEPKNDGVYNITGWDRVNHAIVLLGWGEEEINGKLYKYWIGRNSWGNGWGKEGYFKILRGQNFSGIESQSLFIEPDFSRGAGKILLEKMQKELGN
row,SMILES,% Inhibition @ 10 uM [%]
1,COC(=O)/C(=C/c1ccc(Cl)c(Cl)c1)C(C)=O,25.5
2,COc1ccc(CNC(=O)c2cc(C3CC3)nc3c2c(C)nn3-c2ccc(C)cc2)cc1,7.7
3,COc1cc(OC)c(OC)cc1/C=C1\N=C(c2ccc(C)cc2)OC1=O,-0.441
4,COc1cc2c(cc1OC)C(c1cccc(F)c1)CC(=O)N2 (stereo not shown),-1.52
5,CC1(c2ccccc2)CC(C)(C)N(C(=O)/C=C/c2ccccc2)c2ccccc21 (stereo not shown),0.467
6,CC(=O)c1c(C)oc2c(Cl)c(Cl)c(O)cc12,0.484
7,COc1ccc(CCNS(=O)(=O)c2ccc(Cl)cc2)cc1OC,3.66
8,Cc1ccc(Cn2nc(C)n3c(cc4cc(C)ccc43)c2=O)cc1,-3.79
9,CCOc1ccc2nc(NC(=O)C3CCN(S(=O)(=O)c4cccc5cccnc45)CC3)sc2c1,-1.54
10,CS(=O)(=O)c1ccc2[nH]c(NC(=O)CCN3C(=O)c4ccccc4C3=O)[s+]c2c1,-1.38
11,COc1ccccc1OCc1ccc(C(=O)NC2CCCCCC2)o1,-6.94
12,CCCCC1CCC(C(=O)OC23CCC(c4ccccc4)(CC2)CC3)CC1 (stereo not shown),-1.15
13,CCNc1oc(COc2ccc(F)cc2)nc1C#N,-0.958
14,COc1c(Cl)cc(Cl)cc1C1C(C#N)=C(N)Oc2[nH]nc(-c3ccc4c(c3)OCO4)c21 (stereo not shown),2.32
15,CCC(C)NC(=O)c1cn(CCOC)c(=O)c2c1c1ccccc1n2C (stereo not shown),0.0221
16,CC(NC(=O)c1cc2sccc2n1C)c1ccc2c(c1)OCCO2 (stereo not shown),-1.37
17,CC[C@H](NC(=O)[C@H](CC(C)C)NC1=NS(=O)(=O)c2ccccc21)C(=O)c1nc2ccccc2o1,-3.69
18,Cc1ccc(Cn2cnc3c(cnn3-c3ccc(C)c(C)c3)c2=O)cc1,-5.37
19,c1ccc2c(c1)OCC(CN1CCCCC1)O2 (stereo not shown),4.11
20,Cc1nc2sc(C(=O)Nc3cnc4ccccc4c3)c(N)c2c(C)c1C,2.95
21,Cc1ccccc1Cn1c(SCc2ccccn2)nc2c1c(=O)n(C)c(=O)n2C,-0.703
22,CN(C)c1nc(NC(=O)NS(=O)(=O)c2ccccc2Cl)nc(-c2ccco2)n1,2.38
23,CN(CCCC(=O)n1cnc2ccccc21)S(=O)(=O)c1ccc(Cl)cc1,-4.51
24,Cc1cc(C(=O)NCCCN2CC(C)CC(C)C2)n(-c2ccccc2)n1 (stereo not shown),-3.7
25,Cc1onc(-c2ccccc2Cl)c1C(=O)N1CC(C)OC(C)C1 (stereo not shown),-2.35

row,SMILES,% Inhibition @ 10 uM [%]
1,COc1ccc2c(c1)C(C)=CC(C)(C)N2C(=O)Nc1ccc(C)cc1,2.17
2,COc1ccc(S(=O)(=O)NCc2ccccc2OC)cc1,-4.02
3,CC1CCN(c2nn3c(=O)c(C(=O)NCc4ccco4)cnc3s2)CC1,1.8
4,COc1cccc(CN2CCN(Cc3cc(Br)ccc3O)CC2)c1OC,-7.18
5,O=C(Nc1ccc(O)cc1C(=O)O)c1ccc(N2C(=O)c3ccccc3C2=O)cc1,2.37
6,CCCc1cc(O)n2nc(COc3ccccc3)nc2n1,-4.19
7,CC(C)c1c(O)cc(-c2ccncc2)n(-c2ccc(Cl)cc2)c1=O,4.61
8,O=C(O)CSc1ncnc2sc3c(c12)CCCC3,-2.62
9,COc1ccc(/C=C2\N=C(c3cccs3)OC2=O)c(OC)c1OC,-2.15
10,CC(C)(C)c1ccc(S(=O)(=O)N2CCN(Cc3noc(CCC(=O)N4CCCC4)n3)CC2)cc1,-0.537
11,COc1ccc(OC)c(C2C=C(c3ccc(Cl)cc3OC(F)F)Nc3nnnn32)c1 (stereo not shown),3.45
12,Cc1ccc(CCC2(O)CCCCC2)cn1,1.42
13,COc1ccc(C2C3=C(Nc4ncnn42)c2cc(Cl)ccc2OC3c2cccs2)cc1 (stereo not shown),0.0842
14,CCOC(=O)c1c(C)[nH]c(C)c1S(=O)(=O)N1CCC(C(=O)N(CC)Cc2ccccc2)CC1,1.22
15,Cc1cc(NC(=O)c2nc(-c3ccc(Cl)cc3)n3c2CCCCC3)no1,4.83
16,COc1cccc(C2N3CC4(C)CN2CC(c2ccccc2)(C3)C4=O)c1O (stereo not shown),-3.08
17,Cc1ccc(CSCc2ccc(C(=O)NCCCOC(C)C)o2)cc1,3.24
18,CC1=C(C(=O)c2ccccc2)C(NC(=O)C2CC2)(C(F)(F)F)C(=O)N1CCc1ccccc1 (stereo not shown),-7.15
19,CCN1CCCC1CNC(=O)c1cc2c(s1)CS(=O)(=O)C2 (stereo not shown),-6.26
20,COc1ccc(-c2c(C)nn3c(NCC(C)c4ccccc4)cc(C)nc23)cc1OC (stereo not shown),-3.7
21,CCc1ccc(CNC(=O)CCc2nc(-c3cccs3)no2)cc1,0.163
22,COc1cc(OC)cc(C(=O)c2ccc(C(=O)Nc3ccc4ncccc4c3)cc2)c1,0.475
23,CCCCNC(=O)c1nnn(-c2ccccc2)c1N,-1.68
24,CCN1C(=O)c2cccc3c(NS(=O)(=O)c4ccc([N+](=O)[O-])cc4)ccc1c23,-3.98
25,CN1C(=O)c2ccccc2C(C(=O)NCc2ccc3c(c2)OCO3)C1c1cccs1 (stereo not shown),-3.31

row,SMILES,% Inhibition @ 10 uM [%]
1,COc1ccccc1OCCCCN1CCOCC1,1.35
2,COc1ccc(C(=O)Nc2ccccc2F)cc1OC,-3.26
3,Nc1nc(-c2cccnc2)nn1C(=O)COc1ccccc1,3.93
4,CC(=O)N1c2ccccc2N=C2CC(C)(C)CC(O)=C2C1CC1CC=C(C)C1(C)C (stereo not shown),4.67
5,O=C(CN(c1ccc(Br)cc1)S(=O)(=O)c1ccccc1)NC1CC2CCC1C2 (stereo not shown),-2.8
6,S=C(c1ccc(-c2cc(Cl)ccc2Cl)o1)N1CCOCC1,-5.51
7,CN(C)CN1C(=O)C(=O)c2ccccc21,-4.61
8,O=C(c1ccc(CS(=O)Cc2ccc(Cl)cc2)o1)N1CCN(c2ccccn2)CC1 (stereo not shown),-2.44
9,O=C1CC(c2ccccc2)CC(=O)C1=CNCCN1CCOCC1 (stereo not shown),3.25
10,Cc1cc(C)c2c(c1)C1(C(=O)N2)C(C#N)=C(N)Oc2c1c(C)nn2-c1ccccc1 (stereo not shown),-5.34
11,Cc1cc(Cl)ccc1Nc1ncccc1C(N)=O,-3.56
12,Cc1nc2nc(NC(=O)C(c3ccccc3)c3ccccc3)nn2c(C)c1Cl,2.05
13,COc1ccc2nc3c(O)n(CCC(=O)O)c(SCC(N)=O)nc-3c2c1,9.02
14,CCOC(=O)C1C(C)=CC(=O)OC1C (stereo not shown),-7.11
15,CCCN1CCN(C(=O)c2noc3c2COc2ccc(C)cc2-3)CC1,-0.74
16,COc1ccc(N2C(=O)NC(=O)/C(=C/c3cc4c(cc3Cl)OCO4)C2=O)cc1,7.48
17,Cc1oc2ccc(O)c(CN3CCCCC3C)c2c1C(=O)NCc1ccccc1 (stereo not shown),-1.22
18,COc1cc(C2CC(=O)NC3=C2C(=O)CC(c2ccc(F)cc2)C3)ccc1O (stereo not shown),-2.24
19,COc1cc(C2NCCc3c2[nH]c2ccccc32)ccc1O (stereo not shown),-11.1
20,Cn1nnc2c(NC3CCOC(C)(C)C3)nc(Cc3ccc(Cl)cc3Cl)nc21 (stereo not shown),3.51
21,N#CC1=C2SCC(O)(c3ccccc3)N2C(=O)CC1c1ccccc1Cl (stereo not shown),2.34
22,O=c1/c(=C/c2cccs2)sc2ncnn12,-3.33
23,Cc1ccc(-c2c(CN3CCC(N4CCCCC4)CC3)csc2C)cc1,9.5
24,CC(C)(C)c1ccc(C(=O)N[C@H](C(=O)NCC#N)[C@@H]2CCc3ccccc32)cc1,1.71
25,CCOc1cc(C2C(C#N)=C(N)Oc3[nH]nc(-c4ccccc4Cl)c32)ccc1O (stereo not shown),-2.45

row,SMILES,% Inhibition @ 10 uM [%]
1,COc1ccc(CNc2sc(S(C)(=O)=O)nc2S(=O)(=O)c2ccc(C)cc2)cc1,-0.522
2,Cc1cc(C)n(-c2nnc(C)n2/N=C/c2cc(Cl)ccc2F)n1,5.89
3,C=CC#CC1(O)CC(C)N(C)CC1C (stereo not shown),-3.5
4,CCOC(=O)C1CCCCN1Cc1ccoc1 (stereo not shown),-0.969
5,CSc1ccccc1-c1ccc(C(=O)N[C@@H](CC(C)C)C(=O)NCC#N)cc1,-3.48
6,CCOC(=O)c1c(NC(=O)c2ccc(OCc3cccc(F)c3)c(OC)c2)sc(C)c1C,0.4
7,O=C1c2ccccc2C(=O)C1(c1ccccc1)N1CCN(Cc2ccccc2)CC1,-1.55
8,COc1cc(C(c2sc3nc(C)nn3c2O)N2CCc3ccccc3C2)cc(OC)c1OC (stereo not shown),-6.62
9,C=CCOc1c(CNc2ccc(C(=O)O)cc2)cccc1OC,-3.25
10,COc1ccc(C(=O)O)cc1COc1ccc(Cl)c(C)c1,-5.13
11,N#CC1=C(SCC(=O)Nc2ccc(Br)cc2)NC(=O)CC1c1cccc(O)c1 (stereo not shown),-1.64
12,CCc1ccc(/C=C2\C(=N)N3N=C(S(C)(=O)=O)SC3=NC2=O)cc1,-3.35
13,CCOCCCNC(=O)c1cc2c(Cl)nc3ccccc3c2s1,4.15
14,CCCCN(C)CCCNC(=O)Cn1cccc1C(=O)c1ccccc1,-4.04
15,COc1cccc(C(=O)NC(Cc2ccccc2)c2ccc3c(c2)OCCCO3)c1 (stereo not shown),0.475
16,CC(=O)N1CCC2(CC1)OC(=O)C(C)=C2C(=O)NCCCN1CCCCC1C (stereo not shown),-3.25
17,COc1cc(C2C(C#N)=C(N)Oc3[nH]nc(-c4ccccc4)c32)cc(OC)c1OC (stereo not shown),-0.366
18,COC(=O)C1=CN(C)C=C(C(=O)OC)C1c1ccc(OCc2ccccc2)c(OC)c1,-1.48
19,O=C(NCCc1ccc(Cl)cc1)C(=O)c1c[nH]c2ccccc12,2.7
20,c1ccc(CCc2nn3c(C4COc5ccccc5O4)nnc3s2)cc1 (stereo not shown),1.25
21,CCOc1ccc(C2C(C(=O)O)c3ccccc3C(=O)N2CCN2CCOCC2)cc1 (stereo not shown),2.73
22,O=C(O)Cn1ccnc1C(O)c1ccccc1 (stereo not shown),-2.59
